In PMC12848027:
Results are given in words; binding and its absence hold for the method and conditions named. In cells and extracts the contact can be indirect. Some results given as binding are weak or reduced against the parent protein; the word gives no strength. For some assays here: Sequences can lack the tags named with a protein.

By UniProt entry, the sequences of proteins in these tests, tags left out.
UniProt P63208: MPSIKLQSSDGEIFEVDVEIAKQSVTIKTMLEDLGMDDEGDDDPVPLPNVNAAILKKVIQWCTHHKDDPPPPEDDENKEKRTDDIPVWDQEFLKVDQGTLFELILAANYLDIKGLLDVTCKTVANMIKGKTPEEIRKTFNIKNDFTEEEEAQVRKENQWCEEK

Tests used:
[1] = molecular target: T1, NR2F2 in PANC-1 cells (human (endogenous in PANC-1)) (UniProt P24468); assay: co-IP; KPC and PANC-1 cell lysates, indicated antibodies; Protein A/G Magnetic Beads for endogenous proteins; also with progressive FUT2 overexpression plus MG132 (Fig. 5G) and with shNT or shFUT2 (Fig. 5H)
T1 sequence: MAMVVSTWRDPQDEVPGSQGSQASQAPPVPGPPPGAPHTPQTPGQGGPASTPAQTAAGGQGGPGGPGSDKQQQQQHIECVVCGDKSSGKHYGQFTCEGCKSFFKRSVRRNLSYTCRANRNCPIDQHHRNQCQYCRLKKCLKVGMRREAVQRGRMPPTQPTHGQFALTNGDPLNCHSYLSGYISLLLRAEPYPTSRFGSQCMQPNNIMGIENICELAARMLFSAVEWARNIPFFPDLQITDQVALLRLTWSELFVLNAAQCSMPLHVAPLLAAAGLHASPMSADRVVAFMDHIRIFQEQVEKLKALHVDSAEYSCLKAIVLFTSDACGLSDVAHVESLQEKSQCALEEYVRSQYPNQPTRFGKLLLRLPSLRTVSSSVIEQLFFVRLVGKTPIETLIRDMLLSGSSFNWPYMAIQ

[2] = molecular target: T2, FUT2 in PANC-1 cells (co-IP of Fig. 5B) (human (endogenous in PANC-1)) (UniProt Q10981); assay: as above
T2 sequence: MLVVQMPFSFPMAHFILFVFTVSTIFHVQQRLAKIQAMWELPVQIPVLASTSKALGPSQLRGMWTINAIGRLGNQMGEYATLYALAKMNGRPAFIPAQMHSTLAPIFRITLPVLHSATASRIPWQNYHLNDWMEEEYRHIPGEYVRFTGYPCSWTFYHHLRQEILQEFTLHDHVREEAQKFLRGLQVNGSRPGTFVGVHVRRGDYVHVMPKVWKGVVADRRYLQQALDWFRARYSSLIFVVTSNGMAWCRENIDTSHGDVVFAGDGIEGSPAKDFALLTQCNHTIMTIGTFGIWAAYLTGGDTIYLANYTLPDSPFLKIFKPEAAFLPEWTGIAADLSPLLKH

[3] = molecular target: T3, Flag-tagged NR2F2 (UniProt P24468); assay: co-IP; HEK293T cells co-transfected with Flag- and HA-tagged constructs (with or without FUT2 in Fig. S5C); anti-Flag M2 magnetic beads with lysates at 4 °C for 4 h; immunoblotting
T3 sequence: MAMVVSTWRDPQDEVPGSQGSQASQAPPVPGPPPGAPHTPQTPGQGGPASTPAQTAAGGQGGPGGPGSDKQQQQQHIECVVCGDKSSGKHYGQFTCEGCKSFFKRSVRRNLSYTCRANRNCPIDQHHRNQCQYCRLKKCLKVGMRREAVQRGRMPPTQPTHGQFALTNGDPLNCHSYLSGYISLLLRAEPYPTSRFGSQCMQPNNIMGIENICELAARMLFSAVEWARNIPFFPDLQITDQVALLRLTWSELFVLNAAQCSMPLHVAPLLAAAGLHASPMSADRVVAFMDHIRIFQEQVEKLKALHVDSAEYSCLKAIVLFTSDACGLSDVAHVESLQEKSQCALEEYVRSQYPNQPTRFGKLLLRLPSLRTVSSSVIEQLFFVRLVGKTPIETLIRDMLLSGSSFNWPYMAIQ

[4] = molecular target: T4, FUT2-FL-Flag (full-length FUT2, amino acids 1-343) (UniProt Q10981); assay: as above
T4 sequence: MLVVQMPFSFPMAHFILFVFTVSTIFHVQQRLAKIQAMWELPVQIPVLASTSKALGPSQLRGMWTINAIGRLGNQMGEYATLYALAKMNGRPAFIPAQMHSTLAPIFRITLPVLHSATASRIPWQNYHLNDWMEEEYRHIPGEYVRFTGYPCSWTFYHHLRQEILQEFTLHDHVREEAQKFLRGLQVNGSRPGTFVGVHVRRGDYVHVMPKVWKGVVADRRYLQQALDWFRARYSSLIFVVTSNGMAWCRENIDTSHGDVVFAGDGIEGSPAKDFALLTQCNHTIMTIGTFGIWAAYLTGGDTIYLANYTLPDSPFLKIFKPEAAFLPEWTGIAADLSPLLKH

[5] = molecular target: T5, FUT2-N-Flag (N-terminal fragment of FUT2, amino acids 1-172) (UniProt Q10981); assay: as above
T5 sequence: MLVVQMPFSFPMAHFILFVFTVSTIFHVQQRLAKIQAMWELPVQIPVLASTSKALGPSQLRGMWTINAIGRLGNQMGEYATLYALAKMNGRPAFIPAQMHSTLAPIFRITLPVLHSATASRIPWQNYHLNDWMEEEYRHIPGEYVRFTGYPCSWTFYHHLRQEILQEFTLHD

[6] = molecular target: T6, FUT2-C-Flag (C-terminal fragment of FUT2, amino acids 173-343) (UniProt Q10981); assay: as above
T6 sequence: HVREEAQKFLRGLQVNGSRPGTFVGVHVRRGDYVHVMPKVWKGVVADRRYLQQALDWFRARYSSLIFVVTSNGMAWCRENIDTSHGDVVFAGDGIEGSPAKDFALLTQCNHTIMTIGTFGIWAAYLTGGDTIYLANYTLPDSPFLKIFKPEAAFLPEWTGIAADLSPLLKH

[7] = molecular target: T7, FUT2 of the in vitro binding assay (GST pulldown) (UniProt Q10981); assay: pull-down; GST pulldown, 'in vitro binding assay'; the paper says 'directly'; which partner carried GST is not told in the text shown
T7 sequence: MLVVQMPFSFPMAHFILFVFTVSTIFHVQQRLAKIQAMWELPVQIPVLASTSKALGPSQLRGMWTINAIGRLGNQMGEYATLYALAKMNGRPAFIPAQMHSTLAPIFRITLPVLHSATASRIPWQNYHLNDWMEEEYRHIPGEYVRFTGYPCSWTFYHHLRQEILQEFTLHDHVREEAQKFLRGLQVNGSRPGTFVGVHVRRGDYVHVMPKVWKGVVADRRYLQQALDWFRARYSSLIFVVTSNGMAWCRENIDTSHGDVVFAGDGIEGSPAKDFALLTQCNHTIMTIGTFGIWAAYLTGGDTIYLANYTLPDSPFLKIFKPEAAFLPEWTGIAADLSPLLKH

[8] = molecular target: T8, NR2F2 in KPC cells (mouse (endogenous in KPC)) (UniProt P43135); assay: co-IP; KPC and PANC-1 cell lysates, indicated antibodies; Protein A/G Magnetic Beads for endogenous proteins; also with progressive FUT2 overexpression plus MG132 (Fig. 5G) and with shNT or shFUT2 (Fig. 5H)
T8 sequence: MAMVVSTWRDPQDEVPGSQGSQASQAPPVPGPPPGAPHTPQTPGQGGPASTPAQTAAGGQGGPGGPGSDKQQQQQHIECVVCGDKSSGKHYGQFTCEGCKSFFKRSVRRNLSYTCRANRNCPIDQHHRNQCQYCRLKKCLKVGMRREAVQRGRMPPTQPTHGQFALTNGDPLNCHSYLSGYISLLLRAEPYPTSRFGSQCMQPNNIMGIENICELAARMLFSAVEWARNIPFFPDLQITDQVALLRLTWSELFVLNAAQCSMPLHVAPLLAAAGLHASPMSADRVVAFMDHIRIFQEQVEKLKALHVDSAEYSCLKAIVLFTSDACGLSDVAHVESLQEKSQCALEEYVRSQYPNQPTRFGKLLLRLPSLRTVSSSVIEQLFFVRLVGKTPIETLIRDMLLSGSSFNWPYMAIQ

SKP1 in PANC-1 cells (from UniProt P63208 1-163)
binding [1]: binds | binding [2]: binds

B1: FBXO2-HA (protein, UniProt Q9UK22 1-296)
chain: MDGDGDPESVGQPEEASPEEQPEEASAEEERPEDQQEEEAAAAAAYLDELPEPLLLRVLAALPAAELVQACRLVCLRWKELVDGAPLWLLKCQQEGLVPEGGVEEERDHWQQFYFLSKRRRNLLRNPCGEEDLEGWCDVEHGGDGWRVEELPGDSGVEFTHDESVKKYFASSFEWCRKAQVIDLQAEGYWEELLDTTQPAIVVKDWYSGRSDAGCLYELTVKLLSEHENVLAEFSSGQVAVPQDSDGGGWMEISHTFTDYGPGVRFVRFEHGGQDSVYWKGWFGARVTNSSVWVEP
binding [3]: binds | binding [4]: binds | binding [5]: no binding | binding [6]: binds

B2: NR2F2-HA (protein, UniProt P24468 1-414)
chain: MAMVVSTWRDPQDEVPGSQGSQASQAPPVPGPPPGAPHTPQTPGQGGPASTPAQTAAGGQGGPGGPGSDKQQQQQHIECVVCGDKSSGKHYGQFTCEGCKSFFKRSVRRNLSYTCRANRNCPIDQHHRNQCQYCRLKKCLKVGMRREAVQRGRMPPTQPTHGQFALTNGDPLNCHSYLSGYISLLLRAEPYPTSRFGSQCMQPNNIMGIENICELAARMLFSAVEWARNIPFFPDLQITDQVALLRLTWSELFVLNAAQCSMPLHVAPLLAAAGLHASPMSADRVVAFMDHIRIFQEQVEKLKALHVDSAEYSCLKAIVLFTSDACGLSDVAHVESLQEKSQCALEEYVRSQYPNQPTRFGKLLLRLPSLRTVSSSVIEQLFFVRLVGKTPIETLIRDMLLSGSSFNWPYMAIQ
binding [4]: binds | binding [5]: binds | binding [6]: no binding

B3: NR2F2 of the in vitro binding assay (GST pulldown) (protein, UniProt P24468 1-414)
chain: MAMVVSTWRDPQDEVPGSQGSQASQAPPVPGPPPGAPHTPQTPGQGGPASTPAQTAAGGQGGPGGPGSDKQQQQQHIECVVCGDKSSGKHYGQFTCEGCKSFFKRSVRRNLSYTCRANRNCPIDQHHRNQCQYCRLKKCLKVGMRREAVQRGRMPPTQPTHGQFALTNGDPLNCHSYLSGYISLLLRAEPYPTSRFGSQCMQPNNIMGIENICELAARMLFSAVEWARNIPFFPDLQITDQVALLRLTWSELFVLNAAQCSMPLHVAPLLAAAGLHASPMSADRVVAFMDHIRIFQEQVEKLKALHVDSAEYSCLKAIVLFTSDACGLSDVAHVESLQEKSQCALEEYVRSQYPNQPTRFGKLLLRLPSLRTVSSSVIEQLFFVRLVGKTPIETLIRDMLLSGSSFNWPYMAIQ
binding [7]: binds

B4: FBXO2 of the in vitro binding assay (GST pulldown) (protein, UniProt Q9UK22 1-296)
chain: MDGDGDPESVGQPEEASPEEQPEEASAEEERPEDQQEEEAAAAAAYLDELPEPLLLRVLAALPAAELVQACRLVCLRWKELVDGAPLWLLKCQQEGLVPEGGVEEERDHWQQFYFLSKRRRNLLRNPCGEEDLEGWCDVEHGGDGWRVEELPGDSGVEFTHDESVKKYFASSFEWCRKAQVIDLQAEGYWEELLDTTQPAIVVKDWYSGRSDAGCLYELTVKLLSEHENVLAEFSSGQVAVPQDSDGGGWMEISHTFTDYGPGVRFVRFEHGGQDSVYWKGWFGARVTNSSVWVEP
binding [7]: binds

B5: FBXO2 in PANC-1 cells (protein, UniProt Q9UK22 1-296)
chain: MDGDGDPESVGQPEEASPEEQPEEASAEEERPEDQQEEEAAAAAAYLDELPEPLLLRVLAALPAAELVQACRLVCLRWKELVDGAPLWLLKCQQEGLVPEGGVEEERDHWQQFYFLSKRRRNLLRNPCGEEDLEGWCDVEHGGDGWRVEELPGDSGVEFTHDESVKKYFASSFEWCRKAQVIDLQAEGYWEELLDTTQPAIVVKDWYSGRSDAGCLYELTVKLLSEHENVLAEFSSGQVAVPQDSDGGGWMEISHTFTDYGPGVRFVRFEHGGQDSVYWKGWFGARVTNSSVWVEP
binding [1]: binds | binding [2]: binds

B6: FBXO2 in KPC cells (protein, UniProt Q80UW2 1-297)
chain: MDGDGDPESVSHPEEASPEEQPEEAGAEASAEEEQLREAEEEEEAEAVEYLAELPEPLLLRVLAELPATELVQACRLVCLRWKELVDGAPLWLLKCQQEGLVPEGSADEERDHWQQFYFLSKRRRNLLRNPCGEEDLEGWSDVEHGGDGWRVEELPGDNGVEFTQDDSVKKYFASSFEWCRKAQVIDLQAEGYWEELLDTTQPAIVVKDWYSGRTDAGSLYELTVRLLSENEDVLAEFATGQVAVPEDGSWMEISHTFIDYGPGVRFVRFEHGGQDSVYWKGWFGARVTNSSVWVEP
binding [8]: binds
